In PubChem BioAssay AID588453 (National Center for Advancing Translational Sciences (NCATS), 2011):
In all, about 390,000 compounds went through this assay and about 4,000 (1%) were called active. This list was built around the results that the source calls inconclusive (neither active nor inactive); the mix of calls is not that of the screen. Calls come from the whole dose curve; as a rule, active = well fitted inhibition curve with a large enough effect; inconclusive = small, poorly fitted or top-dose-only effect; inactive = no such curve, though single readings can be large or run the other way. Potencies beside an inconclusive call are fits to weak or partial responses and may not hold up.

Each compound was assayed against Thioredoxin reductase 1, cytoplasmic (Rattus norvegicus) (UniProt O89049) (assay: qHTS Assay for Inhibitors of Mammalian Selenoprotein Thioredoxin Reductase 1 (TrxR1): qHTS). Conditions: recombinant rTrxR1, NADPH fluorescence consumption, selenite substrate; series mostly up to 114 µM.
Chain of UniProt O89049 (O89049 whole entry, looked up): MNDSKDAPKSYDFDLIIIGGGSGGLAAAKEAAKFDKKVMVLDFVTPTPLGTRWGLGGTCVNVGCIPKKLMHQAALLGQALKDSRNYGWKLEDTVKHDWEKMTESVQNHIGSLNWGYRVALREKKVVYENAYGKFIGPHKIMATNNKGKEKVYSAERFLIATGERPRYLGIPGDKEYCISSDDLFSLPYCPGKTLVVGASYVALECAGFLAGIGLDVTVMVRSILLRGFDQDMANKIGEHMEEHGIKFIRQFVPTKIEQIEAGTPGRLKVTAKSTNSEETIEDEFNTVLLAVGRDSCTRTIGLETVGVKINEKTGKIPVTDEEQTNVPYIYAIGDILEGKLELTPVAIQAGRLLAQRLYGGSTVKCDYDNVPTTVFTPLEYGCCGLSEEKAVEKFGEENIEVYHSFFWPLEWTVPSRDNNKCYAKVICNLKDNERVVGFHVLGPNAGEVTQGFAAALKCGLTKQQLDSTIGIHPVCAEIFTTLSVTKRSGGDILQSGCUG
Method in brief: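 Rat TrxR1 (90 nM in the dispensed reagent) was pre-reduced with 400 uM NADPH for 5 min at room temperature, then incubated with compound for 15 min. After 400 uM selenite was added, NADPH fluorescence (Ex 340/Em 450 nm) was followed for 8 min.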
Note: nearly all actives have a fitted effect of over 65% in size.
Potency is the fitted concentration of half-maximal effect; tags give direction and shape of the fitted curve.

Compound	Potency
COc1ccccc1N=c1scc(-c2ccc(S(=O)(=O)N3CCCC3)cc2)n1C	inactive
Cc1ccc(OCc2nc(C#N)c(N3CCCC3)o2)cc1	inconclusive: 25.1 µM [inhibitor, partial curve, poor fit]
C=CCNc1nc2c(c(=O)[nH]c(=O)n2C)n1CCCCC	inconclusive: 25.1 µM [inhibitor, partial curve, poor fit]
CCOC(=O)c1cc(-c2ccccc2)n(-c2cccc(C(=O)N(C)c3ccc(C)cc3)c2)c1C	inactive
CC(C)(C)S(=O)(=O)N1Cc2cc(=O)n(Cc3ccccc3)c(CCO)c2[C@@H]1CCO	inconclusive: 44.7 µM [inhibitor, partial curve, poor fit]
O=C(C1CCN(S(=O)(=O)c2cccc3cccnc23)CC1)N1CCN(Cc2ccccc2)CC1	inconclusive: 79.4 µM [inhibitor, single point]
COc1ccc(CN2C(=O)C(C)S/C2=N/N=C/c2ccco2)cc1 (configuration not stated)	inconclusive: 39.8 µM [inhibitor, full curve]
C#CCSc1nnc(CNS(=O)(=O)c2ccc(Br)cc2)n1C	inconclusive: 89.1 µM [inhibitor, single point]
O=C(CCl)N(C/C=C/c1ccccc1)c1ccc2c(c1)OCCO2	active: 7.94 µM
COc1cc(NC(=S)NCCCN2CCOCC2)c(OC)cc1Cl	inconclusive: 89.1 µM [inhibitor, single point]
CCN(CC)C(=O)CSc1nc2cc(S(=O)(=O)N3CCOCC3)ccc2n1CC	inactive
CC(=O)c1cccc(NC(=O)/C(=C/c2ccco2)NC(=O)c2ccco2)c1	inconclusive: 50.1 µM [inhibitor, partial curve]
Cc1ccc(SCC(Cc2ccccc2)N2CCN(C)CCC2=O)cc1 (configuration not stated)	inconclusive: 28.2 µM [inhibitor, partial curve, poor fit]
CC(=O)c1ccc(NC(=O)CCc2nc(-c3ccc(C)cc3)no2)cc1	inconclusive: 22.4 µM [inhibitor, partial curve, poor fit]
Cc1nc(-n2nc(C)c(CCC(C)C)c2C)sc1C(=O)Nc1ccc(Br)cc1	inactive
O=C(O)c1ccc2c(ccc3nn(-c4ccc(/C=C/c5ccc(-n6nc7ccc8cc(C(=O)O)ccc8c7n6)cc5[S+](=O)([O-])[O-])c([S+](=O)([O-])[O-])c4)nc32)c1	inconclusive: 15.8 µM [inhibitor, partial curve]
O=C1NN(c2ccc(Br)cc2)C(=O)/C1=C\c1ccc(O)cc1O	inconclusive: 50.1 µM [inhibitor, partial curve]
